Laboratory results reported in US10889575B2, “4,4-diphenylpiperidine compounds or pharmaceutically acceptable salts thereof, pharmaceutical compositions and uses thereof” (Academy of Military Medical Sciences, priority 2017, dated 2021).

How the values were obtained:
Set-up in all cases: key: “—” indicates that the compound had no effect on this channel current
Conditions in all cases: 10 μM
P/Q-type calcium channel = P/Q-type calcium channel (Homo sapiens, UniProt O00555); assay: P/Q-type calcium channel current inhibition in Xenopus oocytes
[1] = test system: Voltage-gated potassium channel; assay: voltage-gated potassium channel current, primary cultured hippocampal neurons, patch clamp; format: cell-based, Wistar rats
[2] = test system: TTX sensitive sodium channel; format: cell-based, Wistar rats

P/Q-type calcium channel, sequence (O00555 whole entry): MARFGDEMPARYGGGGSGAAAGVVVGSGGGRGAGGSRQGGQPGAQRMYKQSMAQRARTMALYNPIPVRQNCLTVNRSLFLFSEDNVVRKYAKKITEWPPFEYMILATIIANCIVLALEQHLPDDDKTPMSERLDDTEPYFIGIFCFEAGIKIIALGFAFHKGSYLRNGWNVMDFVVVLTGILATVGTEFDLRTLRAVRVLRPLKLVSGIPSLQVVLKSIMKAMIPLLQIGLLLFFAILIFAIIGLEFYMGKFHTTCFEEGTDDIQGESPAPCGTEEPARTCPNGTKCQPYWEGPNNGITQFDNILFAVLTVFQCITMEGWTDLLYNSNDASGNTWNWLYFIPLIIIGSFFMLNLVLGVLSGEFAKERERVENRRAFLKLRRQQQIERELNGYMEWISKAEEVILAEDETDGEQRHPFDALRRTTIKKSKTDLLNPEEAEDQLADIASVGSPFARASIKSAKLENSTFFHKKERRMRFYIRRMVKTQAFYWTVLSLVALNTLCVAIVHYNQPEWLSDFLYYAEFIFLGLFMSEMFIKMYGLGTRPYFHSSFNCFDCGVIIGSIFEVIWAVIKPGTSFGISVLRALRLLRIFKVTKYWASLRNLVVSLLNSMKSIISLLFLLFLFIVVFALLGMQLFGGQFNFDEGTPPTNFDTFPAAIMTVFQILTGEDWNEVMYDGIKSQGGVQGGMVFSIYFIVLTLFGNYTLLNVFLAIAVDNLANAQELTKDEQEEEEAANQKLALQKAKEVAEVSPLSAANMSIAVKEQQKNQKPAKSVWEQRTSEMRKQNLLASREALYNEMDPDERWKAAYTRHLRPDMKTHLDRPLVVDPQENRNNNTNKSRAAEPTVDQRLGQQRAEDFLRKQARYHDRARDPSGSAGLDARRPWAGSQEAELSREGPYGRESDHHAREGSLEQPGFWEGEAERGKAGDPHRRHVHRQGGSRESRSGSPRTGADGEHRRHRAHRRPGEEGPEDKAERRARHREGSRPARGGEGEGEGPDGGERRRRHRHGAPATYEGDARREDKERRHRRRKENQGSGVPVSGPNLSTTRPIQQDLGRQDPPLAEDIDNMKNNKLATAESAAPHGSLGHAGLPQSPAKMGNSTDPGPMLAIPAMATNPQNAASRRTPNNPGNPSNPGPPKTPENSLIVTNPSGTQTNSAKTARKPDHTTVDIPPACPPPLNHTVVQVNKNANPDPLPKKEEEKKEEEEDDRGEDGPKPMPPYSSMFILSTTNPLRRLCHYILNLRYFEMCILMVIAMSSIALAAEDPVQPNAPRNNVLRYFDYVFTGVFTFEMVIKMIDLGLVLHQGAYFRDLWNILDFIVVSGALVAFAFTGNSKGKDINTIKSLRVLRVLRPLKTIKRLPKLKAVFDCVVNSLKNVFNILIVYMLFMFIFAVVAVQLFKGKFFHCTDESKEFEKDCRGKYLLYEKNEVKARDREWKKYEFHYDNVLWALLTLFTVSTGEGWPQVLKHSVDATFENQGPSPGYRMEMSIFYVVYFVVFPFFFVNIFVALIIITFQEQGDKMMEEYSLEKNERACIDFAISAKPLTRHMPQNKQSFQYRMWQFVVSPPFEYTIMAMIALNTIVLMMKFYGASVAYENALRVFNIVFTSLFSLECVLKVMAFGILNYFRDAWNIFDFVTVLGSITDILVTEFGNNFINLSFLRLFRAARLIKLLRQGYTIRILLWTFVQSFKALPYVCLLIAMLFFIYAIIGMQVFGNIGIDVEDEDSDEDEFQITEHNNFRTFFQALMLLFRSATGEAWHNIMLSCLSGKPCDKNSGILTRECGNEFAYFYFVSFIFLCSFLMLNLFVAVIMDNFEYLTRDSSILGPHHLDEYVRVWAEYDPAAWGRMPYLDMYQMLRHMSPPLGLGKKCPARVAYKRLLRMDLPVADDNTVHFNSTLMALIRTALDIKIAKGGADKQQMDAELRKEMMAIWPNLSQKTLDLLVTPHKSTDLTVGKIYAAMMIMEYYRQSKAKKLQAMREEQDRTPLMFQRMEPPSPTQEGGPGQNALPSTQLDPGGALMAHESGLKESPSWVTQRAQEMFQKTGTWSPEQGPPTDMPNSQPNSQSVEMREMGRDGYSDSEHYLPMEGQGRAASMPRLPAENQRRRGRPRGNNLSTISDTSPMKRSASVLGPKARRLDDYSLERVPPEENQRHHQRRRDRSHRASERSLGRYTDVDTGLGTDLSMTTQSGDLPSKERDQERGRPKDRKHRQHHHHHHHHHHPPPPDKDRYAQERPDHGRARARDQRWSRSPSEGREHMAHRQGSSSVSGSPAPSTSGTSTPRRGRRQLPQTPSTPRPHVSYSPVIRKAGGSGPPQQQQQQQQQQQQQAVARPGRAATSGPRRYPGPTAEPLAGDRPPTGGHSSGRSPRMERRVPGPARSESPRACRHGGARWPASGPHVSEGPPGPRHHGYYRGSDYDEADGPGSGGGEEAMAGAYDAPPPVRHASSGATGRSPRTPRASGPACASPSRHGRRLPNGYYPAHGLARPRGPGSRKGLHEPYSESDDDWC
P/Q-type calcium channel, sequence (Q02641 whole entry, further chain): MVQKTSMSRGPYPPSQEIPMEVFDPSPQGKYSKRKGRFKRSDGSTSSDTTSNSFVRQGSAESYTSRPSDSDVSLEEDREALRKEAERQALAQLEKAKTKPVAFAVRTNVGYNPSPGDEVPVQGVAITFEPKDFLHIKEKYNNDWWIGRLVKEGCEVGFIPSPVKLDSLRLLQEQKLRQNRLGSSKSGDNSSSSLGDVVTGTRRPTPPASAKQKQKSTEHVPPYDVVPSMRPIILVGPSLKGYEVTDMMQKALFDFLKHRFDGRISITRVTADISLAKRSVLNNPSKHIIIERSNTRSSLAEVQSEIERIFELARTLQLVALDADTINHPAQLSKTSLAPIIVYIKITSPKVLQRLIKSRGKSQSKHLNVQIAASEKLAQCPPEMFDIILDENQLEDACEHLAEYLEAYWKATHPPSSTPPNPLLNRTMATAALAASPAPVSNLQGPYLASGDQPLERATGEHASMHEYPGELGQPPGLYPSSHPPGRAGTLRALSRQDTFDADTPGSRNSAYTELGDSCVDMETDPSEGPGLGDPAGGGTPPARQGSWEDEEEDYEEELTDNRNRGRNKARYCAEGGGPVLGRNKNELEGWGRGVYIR
P/Q-type calcium channel, sequence (P54290 945-1091, further chain): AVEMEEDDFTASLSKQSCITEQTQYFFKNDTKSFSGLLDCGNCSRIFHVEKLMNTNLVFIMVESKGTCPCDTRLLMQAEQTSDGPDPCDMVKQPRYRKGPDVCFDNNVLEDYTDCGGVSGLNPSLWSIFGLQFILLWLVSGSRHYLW
P/Q-type calcium channel, sequence (P54290 25-944, further chain): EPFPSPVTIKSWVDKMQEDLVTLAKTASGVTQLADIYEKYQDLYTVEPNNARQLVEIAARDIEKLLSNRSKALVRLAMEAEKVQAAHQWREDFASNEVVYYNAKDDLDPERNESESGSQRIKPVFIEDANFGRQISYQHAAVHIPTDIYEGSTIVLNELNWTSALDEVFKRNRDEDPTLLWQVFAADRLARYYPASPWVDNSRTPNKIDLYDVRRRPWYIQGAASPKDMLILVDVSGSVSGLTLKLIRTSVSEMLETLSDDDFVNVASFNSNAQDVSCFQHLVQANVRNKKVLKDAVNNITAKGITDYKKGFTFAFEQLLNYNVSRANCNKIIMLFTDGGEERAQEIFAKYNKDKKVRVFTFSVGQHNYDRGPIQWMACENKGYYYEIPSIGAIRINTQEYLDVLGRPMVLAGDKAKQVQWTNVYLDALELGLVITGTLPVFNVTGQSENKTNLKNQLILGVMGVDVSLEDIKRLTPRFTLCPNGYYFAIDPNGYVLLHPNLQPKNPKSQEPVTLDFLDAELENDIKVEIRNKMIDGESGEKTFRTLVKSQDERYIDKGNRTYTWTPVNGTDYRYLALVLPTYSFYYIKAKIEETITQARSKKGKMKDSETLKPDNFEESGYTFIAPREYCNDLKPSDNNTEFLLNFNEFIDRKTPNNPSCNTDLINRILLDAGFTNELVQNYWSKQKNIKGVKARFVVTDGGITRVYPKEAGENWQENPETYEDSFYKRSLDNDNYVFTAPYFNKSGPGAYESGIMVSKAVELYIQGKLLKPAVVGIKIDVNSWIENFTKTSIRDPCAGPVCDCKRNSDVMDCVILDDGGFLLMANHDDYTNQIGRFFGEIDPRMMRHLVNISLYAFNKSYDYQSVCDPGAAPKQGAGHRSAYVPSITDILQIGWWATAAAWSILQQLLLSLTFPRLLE

Row | Compound | Current inhibition, P/Q-type calcium channel (P/Q-type calcium channel) | Current inhibition, Voltage-gated potassium channel [1] | Current inhibition, TTX sensitive sodium channel [2]
1 | O=C(CCN1CCC(c2ccccc2)(c2ccccc2)CC1)c1ccc2[nH]c(=O)oc2c1 [Compound (1), 6-(3-(4,4-diphenylpiperidinyl)-propionyl)benzoxazolin-2-one] | — | — | —
2 | O=C(CN1CCC(c2ccccc2)(c2ccccc2)CC1)c1ccc2[nH]c(=O)oc2c1 [Compound (2), 6-(3-(4,4-diphenylpiperidinyl)-acetyl)benzoxazolin-2-one] |  | — | —
3 | CN(C)c1ccc(CN2CCC(c3ccccc3)(c3ccccc3)CC2)cc1 [Compound (3), 1-(4-dimethylaminobenzyl)-4,4-diphenylpiperidine] | — | — | —
4 | COc1cc(CN2CCC(c3ccccc3)(c3ccccc3)CC2)cc(OC)c1OC.Cl [Compound (4) hydrochloride, 1-(3,4,5-trimethoxybenzyl)-4,4-diphenylpiperidine hydrochloride] | — | — | —
5 | c1ccc(C2(c3ccccc3)CCN(Cc3cccs3)CC2)cc1 [Compound (5), 1-(2-methylthienyl)-4,4-diphenylpiperidine] |  | — | —
